T1: UNK ZnF1-3 (human, UniProt Q9C0B0 31-174)
T1 sequence: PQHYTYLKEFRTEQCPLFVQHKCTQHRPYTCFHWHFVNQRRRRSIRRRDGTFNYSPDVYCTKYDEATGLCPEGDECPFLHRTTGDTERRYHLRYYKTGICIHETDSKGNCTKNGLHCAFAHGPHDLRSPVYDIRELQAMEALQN

B1: chr4:21803547:21803548:+_ENSMUSG00000028248_ENSMUST00000098238|mus_mus|FALSE|FALSE (ssRNA)
RNA: GGGAGUUCUACAGUCCGACGAUCUUCACUUGAAGAGUAAUCUAAAACACUUUAAGGUAUGAAAAUUUUAUACAACUUAUCUAUUACAAAUUAAUCAGAAUUCUUCAAUUAGAUACACUGUGUUAGCUCACCUACAUAAAAAAUCAACAGAGGAUUGAGCAUCA
B2: 35793348_35793468_435_3pUTR_ENSMUSG00000016534_ENSMUST00000061755|mouse|control|control (ssRNA)
RNA: GGGAGUUCUACAGUCCGACGAUCUUGUAGGAAAGCACGAUGUCAUGAAUUGAAUAAUGAGAUGCUUCCUUGGUAAAAUUCACAGCCCAAGAGACAGCGAAUCCAAAUUGUAUCAUUAUUUUGGCACUAUUCCGGUCAUCCCCACAACAGAGGAUUGAGCAUCA
B3: chr7:54823571:54823572:-_ENSG00000132432_ENST00000352861|hu_mus|hu_hu_hu_mus_False|1_88 (ssRNA)
RNA: GGGAGUUCUACAGUCCGACGAUCUCCCAUGAUAGCAAAUCCUAUAGCUGUUGCCAUGGCAAUCUUCUGGAAUUCUUUUCUGUCGGGUUUGGUGCAUCUUUUAACCAGCCGAAUUGAGUCCUUUACAAACUGCCGGCUUGGCUCCAACAGAGGAUUGAGCAUCA
B4: chr8:21961785:21961786:+_ENSG00000158863_ENST00000289921|hu_hu|motif|central (ssRNA)
RNA: GGGAGUUCUACAGUCCGACGAUCGCACUGAGGAGAGGGGAGGGUCUGUGACUCCCAAACCCUCGAAUAUUUUAUGAAUCGGAGAGUCCAGACGCAGUUCAUCCACGGAGAUCUGCGCCCCGUCCACACCAACACCCACGUUUGCAACAGAGGAUUGAGCAUCA
B5: chr10:107688926:107688927:+_ENSMUSG00000019907_ENSMUST00000070663|mus_mus|motif|central (ssRNA)
RNA: GGGAGUUCUACAGUCCGACGAUCUUCAUUGAUCGAACUAUUCUUUUUAAGAUCAUCUUCCCAUUUUCUUCUUGUGUAAGAACGGCUUGUUCGCAAACUUGAAGACUCUCUGUUCUCCUUCUCUUCAAUGUCAGAUGUACUGGCCAACAGAGGAUUGAGCAUCA
B6: chr2:65539780:65539781:-_ENSG00000198369_ENST00000356388|hu_hu|FALSE|FALSE (ssRNA)
RNA: GGGAGUUCUACAGUCCGACGAUCUUUGCAAAACAACAAGCAAAAUUUCUUACUUCACUAGUAUCCUAUUCUAAUAUUGCUAAAUUUUUAGAAGUGGUGGCAACACAAUUUAAAAAAUGUUCUACUUUAGGGGUAAUGGGGAGGCAACAGAGGAUUGAGCAUCA
B7: chr14:76904430:76904431:+_ENSMUSG00000022010_ENSMUST00000022587|mus_mus|mus_mus_mus_hu_True|1_18 (ssRNA)
RNA: GGGAGUUCUACAGUCCGACGAUCUGCAGCCAAAAACACCCUCGUGGAAAAAAAGAGGGAACACCAGCAGCCUUGUAUAAGCUAGAUAAAAUCUUCUGGCUUUCCGCAGCCCAGGGAGUGAGAACGGACGGCAGCCCUCGAGUGCAACAGAGGAUUGAGCAUCA
B8: chr15:80415083:80415084:+_ENSG00000086666_ENST00000558494|hu_hu|FALSE|FALSE (ssRNA)
RNA: GGGAGUUCUACAGUCCGACGAUCAUCUUCUGUUUCAGGUACUGCUUUGUCCACAGAUGUACUGUCCAAUUGAGAAGAUGCUACAGAUUCUGAUAAAAGUGACUGAUUUGAUACAGGGCUGGGCUGCAUAGAUGAAGAUGUAGACAACAGAGGAUUGAGCAUCA
B9: 123345274_123345525_2894_CDS_ENSG00000130787_ENST00000253083|human|control|control (ssRNA)
RNA: GGGAGUUCUACAGUCCGACGAUCAUUGACUGUGCGAGAACAUUCCUGCAGGCGGCUCAGGUGGGGGCUGUGCUUGUUGGCCUUCACCUUGGAGGCCGCCACCAGCUGGGCCGUGCUGGCUGCGAUCUCGUGGGAGCAGACGAUCAACAGAGGAUUGAGCAUCA
B10: chr11:22897662:22897663:+_ENSMUSG00000007739_ENSMUST00000173867|mus_mus|FALSE|FALSE (ssRNA)
RNA: GGGAGUUCUACAGUCCGACGAUCGCAAAACUGAAUAAGCCCAAUCUUAGCCUUUUCAACUCUUGUUAUGCCAGAAUUUGCUACUUUCUGUGUGAGAACGAGGCCUUCCACCAGCUCACAGUCAUCUAUUGUCCCACCAAGCUUCAACAGAGGAUUGAGCAUCA
B11: chr11:118639009:118639010:-_ENSG00000110367_ENST00000264018|hu_hu|FALSE|FALSE (ssRNA)
RNA: GGGAGUUCUACAGUCCGACGAUCUUCAAGUAAGGGAAUGAGGUAGGCACCGCUCUUGCCUGUUCCAUUUUUUGCUCUAGCUAAGAUAUCCCUACCAGAUAAAGCAAUGGGAAUGCUCUCCUCCUGAAUAGGAGAUGGCUUUUCCAACAGAGGAUUGAGCAUCA
B12: chr19:8913615:8913616:-_ENSMUSG00000071658_ENSMUST00000096259|mus_mus|FALSE|FALSE (ssRNA)
RNA: GGGAGUUCUACAGUCCGACGAUCGAGGGGGCACCAAACCCUGCCUCAGAUAGGUGCCCCACCCUGCCAGGACUUGGAGCUAAAAAUAUCCGUAGCACUGACAGUUAAUGCAGAGAAGGUCACUAGAGAUGCUCAGACGAGAUCCAACAGAGGAUUGAGCAUCA
B13: chr12:39756943:39756944:-_ENSG00000139116_ENST00000544797|hu_mus|hu_hu_hu_mus_False|18_28 (ssRNA)
RNA: GGGAGUUCUACAGUCCGACGAUCGGUUUGGCUGUUACCCCCAAGGGAAUCCUGCAAGAGUCUUGUCAGCUUAGAGUCUCUGUAAGGGACAUGGGUGGCUCUCUUGCUCUUGUCUCCCAAGGCACUUAUUACAUUCCCAAGAGCCAACAGAGGAUUGAGCAUCA
B14: chr14:27472611:27472612:+_ENSMUSG00000021877_ENSMUST00000022429|perfect_dup|motif|central (ssRNA)
RNA: GGGAGUUCUACAGUCCGACGAUCUUCCAGAAGCAUUUUCUGCAGCACAGCUGCUCCUUCCUGGAUUCUUUCACGAUCAUUGCGGUCGGCCACAAAAAUGAGACCCUGGGUAUUCUGGAAGUAAUGCCUCCAGAGAGGCCUAAUCAACAGAGGAUUGAGCAUCA

This is one part of the list.

In the assay the target is T1, UNK ZnF1-3. Briefly: nsRBNS (natural sequence RNA bind-n-seq); RBNS binding buffer (assumed for nsRBNS): 25 mM Tris pH 7.5, 150 mM KCl, 3 mM MgCl2, 0.01% Triton X-100, 500 ug/ml BSA, 20 U/ml SUPERase-In, 4 C; UNK is unkempt and MSI1 is Musashi-1; names of the RNAs are library labels; protein concentration not given here; high values mean tight binding.
Molecule B1 returned a binding signal of 1.59 enrichment R. In turn, B2 displayed a binding signal of 1.24 enrichment R. B3 registered a binding signal of 0.621 enrichment R. With B4, the binding signal was 1.1 enrichment R. B5 yielded a binding signal of 0.374 enrichment R. In the case of B6 it was 3.03 enrichment R; in that of B7, 1.76 enrichment R.

Molecule B8 registered a binding signal of 1.28 enrichment R. The figure for B9 is 0.434 enrichment R. B10 showed a binding signal of 0.875 enrichment R. In the case of B11 it was 0.817 enrichment R; in that of B12, 1.47 enrichment R; in that of B13, 0.77 enrichment R. Molecule B14 gave a binding signal of 0.773 enrichment R.

Values taken from article PMC12136788.
